± gives the standard error. This sample is rich in variants without activity. Where only a bound is given, the exact number is not on record here.

To fix the notation:
B1: glmS ribozyme (parent)
chain: AUAAAAGCGCCAGAACUACAGAAAUGUAGUUGACGAGGAGGAGGUUUAUCGAAUUUUCGGCGGAUGCCUCCAAA

Common to all, as to conditions: with glucosamine-6-phosphate
Data set [1] covers variants of B1. Put plainly: self-cleavage kobs at 640 uM GlcN6P; higher = faster cleavage; RNA array. Put shortly:
(§1)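 Tiles of sequenced MiSeq chips were imaged over ~14 h at 37 °C. On them, barcoded ribozyme variants had been transcribed in situ by E. coli RNA polymerase and were tracked via a hybridised Cy3 probe while glucosamine-6-phosphate (40 μM to 10 mM) in HEPES/KCl/Mg(OAc)2 buffer flowed in. Per-tile medians, normalised to baseline and to non-cleaving reference variants, were fit to one- or two-exponential decays for kobs, and weighted Michaelis–Menten fits gave kcat and KM.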

Data set [2] covers variants of B1. The experiment in a line: self-cleavage kobs at 160 uM GlcN6P; higher = faster cleavage; RNA array. Put shortly:
as §1

In data set [3] the parent is B1. Put plainly: self-cleavage kobs at 2500 uM GlcN6P; higher = faster cleavage; RNA array. Put shortly:
as §1

In data set [4] the parent is B1. The experiment in a line: self-cleavage kobs at 10000 uM GlcN6P; higher = faster cleavage; RNA array. Put shortly: as §1

As to A14C U54C U57A G60A C70U, the “self-cleavage kobs at 640 uM GlcN6P” value in the data set with glucosamine-6-phosphate [1] was < 1e-05 s⁻¹. In the data set with glucosamine-6-phosphate [2], the “self-cleavage kobs at 160 uM GlcN6P” value was < 1e-05 s⁻¹. Besides, in the data set with glucosamine-6-phosphate [3], the “self-cleavage kobs at 2500 uM GlcN6P” value was < 1e-05 s⁻¹. As to G40U G59A G63U, the “self-cleavage kobs at 640 uM GlcN6P” value with glucosamine-6-phosphate [1] was < 1e-05 s⁻¹. A42G G51A G59C: the “self-cleavage kobs at 640 uM GlcN6P” value with glucosamine-6-phosphate [1] was < 1e-05 s⁻¹. On the same count and under the same terms, next, G29U A33G G60U G62C: < 1e-05 s⁻¹. Consider G38U U46C A53U, for which, in the data set with glucosamine-6-phosphate [1], the “self-cleavage kobs at 640 uM GlcN6P” value is < 1e-05 s⁻¹. Further, the “self-cleavage kobs at 2500 uM GlcN6P” value with glucosamine-6-phosphate [3] is < 1e-05 s⁻¹. Moreover, the “self-cleavage kobs at 10000 uM GlcN6P” value with glucosamine-6-phosphate [4] is < 1e-05 s⁻¹.

In the case of G32U A36U G62U, in the data set with glucosamine-6-phosphate [1], the “self-cleavage kobs at 640 uM GlcN6P” value is < 1e-05 s⁻¹.

For the variant A14G G35A U45G G66U, the “self-cleavage kobs at 640 uM GlcN6P” value with glucosamine-6-phosphate [1] is < 1e-05 s⁻¹. On to G40U C58U G66U, for which, in the data set with glucosamine-6-phosphate [1], the “self-cleavage kobs at 640 uM GlcN6P” value was < 1e-05 s⁻¹. Also, the “self-cleavage kobs at 160 uM GlcN6P” value with glucosamine-6-phosphate [2] is < 1e-05 s⁻¹. Besides, in the data set with glucosamine-6-phosphate [3], the “self-cleavage kobs at 2500 uM GlcN6P” value was < 1e-05 s⁻¹.

On to G37A G38C, for which the “self-cleavage kobs at 640 uM GlcN6P” value with glucosamine-6-phosphate [1] was < 1e-05 s⁻¹. Also, the “self-cleavage kobs at 160 uM GlcN6P” value with glucosamine-6-phosphate [2] was < 1e-05 s⁻¹. For the same variant, the “self-cleavage kobs at 10000 uM GlcN6P” value with glucosamine-6-phosphate [4] is < 1e-05 s⁻¹. With A39G U46A G59C C71G, the “self-cleavage kobs at 640 uM GlcN6P” value with glucosamine-6-phosphate [1] is < 1e-05 s⁻¹. The “self-cleavage kobs at 2500 uM GlcN6P” value with glucosamine-6-phosphate [3] is < 1e-05 s⁻¹. The “self-cleavage kobs at 10000 uM GlcN6P” value with glucosamine-6-phosphate [4] is < 1e-05 s⁻¹. As for G37U G43U G63U C67G, in the data set with glucosamine-6-phosphate [1], the “self-cleavage kobs at 640 uM GlcN6P” value was < 1e-05 s⁻¹. For the same variant, in the data set with glucosamine-6-phosphate [3], the “self-cleavage kobs at 2500 uM GlcN6P” value is < 1e-05 s⁻¹.

As for G43A U57C U69A, in the data set with glucosamine-6-phosphate [1], the “self-cleavage kobs at 640 uM GlcN6P” value was < 1e-05 s⁻¹. Take A33U G38A A39G C67G: the “self-cleavage kobs at 640 uM GlcN6P” value in the data set with glucosamine-6-phosphate [1] was < 1e-05 s⁻¹. Moreover, in the data set with glucosamine-6-phosphate [2], the “self-cleavage kobs at 160 uM GlcN6P” value is < 1e-05 s⁻¹. In the data set with glucosamine-6-phosphate [3], the “self-cleavage kobs at 2500 uM GlcN6P” value is < 1e-05 s⁻¹. G35U C67U: the “self-cleavage kobs at 640 uM GlcN6P” value with glucosamine-6-phosphate [1] was < 1e-05 s⁻¹. For the same variant, the “self-cleavage kobs at 160 uM GlcN6P” value in the data set with glucosamine-6-phosphate [2] was < 1e-05 s⁻¹. For the same variant, the “self-cleavage kobs at 2500 uM GlcN6P” value with glucosamine-6-phosphate [3] was < 1e-05 s⁻¹. For C34U G51C U54A, the “self-cleavage kobs at 640 uM GlcN6P” value with glucosamine-6-phosphate [1] is < 1e-05 s⁻¹. The “self-cleavage kobs at 2500 uM GlcN6P” value with glucosamine-6-phosphate [3] was < 1e-05 s⁻¹.

Turning to C34U C50U A52G U55A, in the data set with glucosamine-6-phosphate [1], the “self-cleavage kobs at 640 uM GlcN6P” value is < 1e-05 s⁻¹. Still for that read-out and setting: with G40U A52G U69G the figure was < 1e-05 s⁻¹. As for G40U U65G, the “self-cleavage kobs at 640 uM GlcN6P” value in the data set with glucosamine-6-phosphate [1] amounted to 0.000417 ± 0.00014 s⁻¹. Further, the “self-cleavage kobs at 2500 uM GlcN6P” value with glucosamine-6-phosphate [3] was 0.00108 ± 0.00028 s⁻¹. In the data set with glucosamine-6-phosphate [4], the “self-cleavage kobs at 10000 uM GlcN6P” value is 0.0019 ± 0.00044 s⁻¹. For the variant A33U G63A, in the data set with glucosamine-6-phosphate [1], the “self-cleavage kobs at 640 uM GlcN6P” value was < 1e-05 s⁻¹. For the same variant, in the data set with glucosamine-6-phosphate [2], the “self-cleavage kobs at 160 uM GlcN6P” value is < 1e-05 s⁻¹. In the data set with glucosamine-6-phosphate [3], the “self-cleavage kobs at 2500 uM GlcN6P” value was < 1e-05 s⁻¹.

For the variant A36U C58U G66C, in the data set with glucosamine-6-phosphate [1], the “self-cleavage kobs at 640 uM GlcN6P” value is < 1e-05 s⁻¹.

In the case of G43U U54G C58A C67U, the “self-cleavage kobs at 640 uM GlcN6P” value in the data set with glucosamine-6-phosphate [1] is < 1e-05 s⁻¹.

For the variant G13U C50U U65C, the “self-cleavage kobs at 640 uM GlcN6P” value with glucosamine-6-phosphate [1] is < 1e-05 s⁻¹. Regarding G32A U49G C58G G63U U69G, the “self-cleavage kobs at 640 uM GlcN6P” value with glucosamine-6-phosphate [1] came out at 0.000279 ± 9.2e-05 s⁻¹. Moreover, the “self-cleavage kobs at 2500 uM GlcN6P” value with glucosamine-6-phosphate [3] is 0.000153 ± 3.7e-05 s⁻¹. As for U31G U55C G62U, in the data set with glucosamine-6-phosphate [1], the “self-cleavage kobs at 640 uM GlcN6P” value was < 1e-05 s⁻¹. G29U U69C: the “self-cleavage kobs at 640 uM GlcN6P” value with glucosamine-6-phosphate [1] turned out to be 0.000356 ± 9e-05 s⁻¹. In the data set with glucosamine-6-phosphate [2], the “self-cleavage kobs at 160 uM GlcN6P” value came to 3.84e-05 ± 1.5e-05 s⁻¹. The “self-cleavage kobs at 2500 uM GlcN6P” value with glucosamine-6-phosphate [3] turned out to be 0.000114 ± 3.1e-05 s⁻¹.

In the case of C16G G62C, the “self-cleavage kobs at 640 uM GlcN6P” value with glucosamine-6-phosphate [1] is < 1e-05 s⁻¹. Moreover, in the data set with glucosamine-6-phosphate [2], the “self-cleavage kobs at 160 uM GlcN6P” value was < 1e-05 s⁻¹. Further, in the data set with glucosamine-6-phosphate [3], the “self-cleavage kobs at 2500 uM GlcN6P” value is < 1e-05 s⁻¹. Turning to G38U U56A, the “self-cleavage kobs at 640 uM GlcN6P” value with glucosamine-6-phosphate [1] was < 1e-05 s⁻¹. Regarding G44C A53G C71U, the “self-cleavage kobs at 640 uM GlcN6P” value with glucosamine-6-phosphate [1] was < 1e-05 s⁻¹. G37A G43U G62U G66C C67A: the “self-cleavage kobs at 640 uM GlcN6P” value with glucosamine-6-phosphate [1] was < 1e-05 s⁻¹. For the same variant, the “self-cleavage kobs at 2500 uM GlcN6P” value in the data set with glucosamine-6-phosphate [3] is < 1e-05 s⁻¹. For the same variant, the “self-cleavage kobs at 10000 uM GlcN6P” value in the data set with glucosamine-6-phosphate [4] was < 1e-05 s⁻¹. With G13C U46G A53U U54A, the “self-cleavage kobs at 640 uM GlcN6P” value with glucosamine-6-phosphate [1] is < 1e-05 s⁻¹.

(Values after the supplement of paper PMC7125110.)
